{"source": "the supplement of paper PMC4604168 (melanoma cell lines)", "note": "Some of the results follow. Many values rest on one well or one pass, so single values are uncertain.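 Also: cells treated in 1,536-well plates, then fixed and DAPI-stained, with nuclei counted from automated high-throughput microscope images.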", "data": [{"test_system": "A101D", "assay": "cell count relative to DMSO control; melanoma cells; higher = more viable cells", "conditions": "library dose: standard library concentration; 72 h", "units": {"cell count": "%"}, "values": [{"molecule": "C#Cc1cccc(Nc2ncnc3cc(OCCOC)c(OCCOC)cc23)c1", "note": "[erlotinib] + COc1cc2c(Oc3ccc4[nH]c(C)cc4c3F)ncnc2cc1OCCCN1CCCC1 [cediranib] (first compound 4 µM, partner dose 2 µM)", "cell count": 80}, {"molecule": "Clc1ccc(Nc2nnc(Cc3ccncc3)c3ccccc23)cc1", "note": "[vatalanib] + Cn1c(Nc2ccc(C(F)(F)F)cc2)nc2cc(Oc3ccnc(-c4ncc(C(F)(F)F)[nH]4)c3)ccc21 [CHIR265] (first compound 10 µM, partner dose 0.4 µM)", "cell count": 50.7}, {"molecule": "Nc1cccc2c1CN(C1CCC(=O)NC1=O)C2=O", "note": "(stereo not given) [lenalidomide] + CO[C@@H]1[C@H](N(C)C(=O)c2ccccc2)C[C@H]2O[C@]1(C)n1c3ccccc3c3c4c(c5c6ccccc6n2c5c31)C(=O)NC4 [Midostaurin] (first compound 5 µM, partner dose 0.4 µM)", "cell count": 87.3}, {"molecule": "Cn1c(Nc2ccc(C(F)(F)F)cc2)nc2cc(Oc3ccnc(-c4ncc(C(F)(F)F)[nH]4)c3)ccc21", "note": "+ COCC[n+]1c2c(n(Cc3cnccn3)c1C)C(=O)c1ccccc1C2=O [YM155] (first compound 0.4 µM, partner dose 0.002 µM)", "cell count": 53.3}, {"molecule": "Clc1ccc(Nc2nnc(Cc3ccncc3)c3ccccc23)cc1", "note": "[vatalanib] + CN(C)S(=O)(=O)c1ccc2c(c1)/C(=C/c1cc3c([nH]1)CCCC3)C(=O)N2 [SU6656] (first compound 10 µM, partner dose 2 µM)", "cell count": 57.6}, {"molecule": "OCc1c[nH]c2ccccc12", "note": "[Indole-3-carbinol] + C[C@@H]1CCN(C(=O)CC#N)C[C@@H]1N(C)c1ncnc2[nH]ccc12 [CP690550] (first compound 4 µM, partner dose 5 µM)", "cell count": 89.6}, {"molecule": "Clc1ccc(Nc2nnc(Cc3ccncc3)c3ccccc23)cc1", "note": "[vatalanib] + COc1cc(Nc2ncc(F)c(Nc3ccc4c(n3)NC(=O)C(C)(C)O4)n2)cc(OC)c1OC [Tamatinib] (first compound 10 µM, partner dose 2 µM)", "cell count": 18.9}, {"molecule": "C#Cc1cccc(Nc2ncnc3cc(OCCOC)c(OCCOC)cc23)c1", "note": "[erlotinib] + Cc1ccc(NC(=O)c2cccc(N(C)C)c2)cc1NC(=O)c1ccc(O)cc1 [ZM336372] (first compound 4 µM, partner dose 10 µM)", "cell count": 69}, {"molecule": "Nc1cccc2c1CN(C1CCC(=O)NC1=O)C2=O", "note": "(stereo not given) [lenalidomide] + CN(C)S(=O)(=O)c1ccc2c(c1)/C(=C/c1cc3c([nH]1)CCCC3)C(=O)N2 [SU6656] (first compound 5 µM, partner dose 2 µM)", "cell count": 76.9}, {"molecule": "Cn1c(Nc2ccc(C(F)(F)F)cc2)nc2cc(Oc3ccnc(-c4ncc(C(F)(F)F)[nH]4)c3)ccc21", "note": "+ CN(NC(=O)CC(=O)NN(C)C(=S)c1ccccc1)C(=S)c1ccccc1 [STA4783] (first compound 0.4 µM, partner dose 0.03 µM)", "cell count": 46.2}, {"molecule": "O=C(CCCCCCC(=O)Nc1ccccc1)NO", "note": "[vorinostat] + CC1(C)NC(=O)N(c2ccc([N+](=O)[O-])c(C(F)(F)F)c2)C1=O [nilutamide] (first compound 0.4 µM, partner dose 5 µM)", "cell count": 92.3}, {"molecule": "COCC[n+]1c2c(n(Cc3cnccn3)c1C)C(=O)c1ccccc1C2=O", "note": "+ CC(C)(C)c1cnc(CSc2cnc(NC(=O)C3CCNCC3)s2)o1 [SNS-032] (first compound 0.002 µM, partner dose 0.05 µM)", "cell count": 41.2}, {"molecule": "C#Cc1cccc(Nc2ncnc3cc(OCCOC)c(OCCOC)cc23)c1", "note": "[erlotinib] + CO[C@@H]1[C@H](N(C)C(=O)c2ccccc2)C[C@H]2O[C@]1(C)n1c3ccccc3c3c4c(c5c6ccccc6n2c5c31)C(=O)NC4 [Midostaurin] (first compound 4 µM, partner dose 0.4 µM)", "cell count": 43.3}, {"molecule": "Clc1ccc(Nc2nnc(Cc3ccncc3)c3ccccc23)cc1", "note": "[vatalanib] + O=C(Nc1cccc(Cl)c1)Nc1ncc(CCNc2ncnc3ccsc23)s1 [SNS314] (first compound 10 µM, partner dose 0.004 µM)", "cell count": 72.3}, {"molecule": "COCC[n+]1c2c(n(Cc3cnccn3)c1C)C(=O)c1ccccc1C2=O", "note": "+ C[C@@H]1CCN(C(=O)CC#N)C[C@@H]1N(C)c1ncnc2[nH]ccc12 [CP690550] (first compound 0.002 µM, partner dose 5 µM)", "cell count": 63.5}]}]}
